From the supplement of paper PMC8728848
The list shows a part of the results.

Legend:
Experiment in all cases: glycan array binding signal (z-score within array); higher = stronger binding
Settings in all cases: glycan notation: IUPAC condensed, linker removed
[1] = target: Gal(b1-2)Gal
Procedure, shortened: (§1)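 Glycan array data came from 3228 arrays in the Consortium for Functional Glycomics database, and only arrays with an available protein sequence were kept. Glycan names were put into IUPAC-condensed notation, and columns mapping to the same glycan were averaged. The binding signal is a within-array Z-score, averaged across arrays of one protein sequence run at different concentrations or buffers and across linkers. A negative Z-score can be read as non-binding.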

[2] = target: Gal(b1-3)Gal
Procedure, shortened: as §1

[3] = target: Gal(b1-3)Gal(b1-4)GlcNAc
Procedure, shortened: as §1

[4] = target: Gal(b1-3)GalNAc
Procedure, shortened: as §1

[5] = target: Gal(b1-3)GalNAc(b1-3)Gal(a1-4)Gal(b1-4)Glc
Procedure, shortened: as §1

[6] = target: Gal(b1-3)GalNAc(b1-4)Gal(b1-4)Glc
Procedure, shortened: as §1

[7] = target: Gal(b1-3)GalNAc(b1-4)[Neu5Ac(a2-3)]Gal(b1-4)Glc
Procedure, shortened: as §1

[8] = target: Gal(b1-3)GlcNAc
Procedure, shortened: as §1

[9] = target: Gal(b1-3)GlcNAc(b1-2)Man(a1-3)[Gal(b1-3)GlcNAc(b1-2)Man(a1-6)]Man(b1-4)GlcNAc(b1-4)GlcNAc
Procedure, shortened: as §1

[10] = target: Gal(b1-3)GlcNAc(b1-3)Gal(b1-3)GlcNAc
Procedure, shortened: as §1

[11] = target: Gal(b1-3)GlcNAc(b1-3)Gal(b1-4)Glc
Procedure, shortened: as §1

[12] = target: Gal(b1-3)GlcNAc(b1-3)Gal(b1-4)GlcNAc
Procedure, shortened: as §1

[13] = target: Gal(b1-3)[Fuc(a1-4)]GlcNAc
Procedure, shortened: as §1

[14] = target: Gal(b1-3)[Fuc(a1-4)]GlcNAc(b1-3)Gal(b1-3)[Fuc(a1-4)]GlcNAc
Procedure, shortened: as §1

[15] = target: Gal(b1-3)[Fuc(a1-4)]GlcNAc(b1-3)Gal(b1-4)GlcNAc
Procedure, shortened: as §1

[16] = target: Gal(b1-3)[Fuc(a1-4)]GlcNAc(b1-3)Gal(b1-4)[Fuc(a1-3)]GlcNAc
Procedure, shortened: as §1

[17] = target: Gal(b1-3)[GlcNAc(b1-6)]GalNAc
Procedure, shortened: as §1

[18] = target: Gal(b1-3)[Neu5Ac(a2-6)]GalNAc
Procedure, shortened: as §1

[19] = target: Gal(b1-3)[Neu5Ac(a2-6)]GlcNAc(b1-6)Gal(b1-4)Glc
Procedure, shortened: as §1

[20] = target: Gal(b1-3)[Neu5Ac(b2-6)]GalNAc
Procedure, shortened: as §1

[21] = target: Gal(b1-4)GalNAc(a1-3)[Fuc(a1-2)]Gal(b1-4)GlcNAc
Procedure, shortened: as §1

[22] = target: Gal(b1-4)GalNAc(b1-3)[Fuc(a1-2)]Gal(b1-4)GlcNAc
Procedure, shortened: as §1

[23] = target: Gal(b1-4)Glc
Procedure, shortened: as §1

[24] = target: Gal(b1-4)Glc6S
Procedure, shortened: as §1

[25] = target: Gal(b1-4)GlcNAc
Procedure, shortened: as §1

[26] = target: Gal(b1-4)GlcNAc(a1-6)Gal(b1-4)GlcNAc
Procedure, shortened: as §1

[27] = target: Gal(b1-4)GlcNAc(b1-2)Man(a1-3)[Gal(b1-4)GlcNAc(b1-2)Man(a1-6)]Man(b1-4)GlcNAc(b1-4)GlcNAc
Procedure, shortened: as §1

[28] = target: Gal(b1-4)GlcNAc(b1-3)Gal(b1-3)GlcNAc
Procedure, shortened: as §1

[29] = target: Gal(b1-4)GlcNAc(b1-3)Gal(b1-4)Glc
Procedure, shortened: as §1

[30] = target: Gal(b1-4)GlcNAc(b1-3)Gal(b1-4)GlcNAc
Procedure, shortened: as §1

[31] = target: Gal(b1-4)GlcNAc(b1-3)Gal(b1-4)GlcNAc(b1-3)Gal(b1-4)GlcNAc
Procedure, shortened: as §1

[32] = target: Gal(b1-4)GlcNAc(b1-3)Gal(b1-4)[Fuc(a1-3)]GlcNAc(b1-3)Gal(b1-4)[Fuc(a1-3)]GlcNAc
Procedure, shortened: as §1

[33] = target: Gal(b1-4)GlcNAc(b1-3)GalNAc
Procedure, shortened: as §1

[34] = target: Gal(b1-4)GlcNAc(b1-3)[Gal(b1-4)GlcNAc(b1-6)]Gal(b1-4)GlcNAc
Procedure, shortened: as §1

[35] = target: Gal(b1-4)GlcNAc(b1-3)[GlcNAc(b1-6)]Gal(b1-4)GlcNAc
Procedure, shortened: as §1

[36] = target: Gal(b1-4)GlcNAc(b1-6)Gal(b1-4)GlcNAc
Procedure, shortened: as §1

[37] = target: Gal(b1-4)GlcNAc(b1-6)Gal(b1-4)GlcNAc(b1-6)GalNAc
Procedure, shortened: as §1

[38] = target: Gal(b1-4)GlcNAc(b1-6)GalNAc
Procedure, shortened: as §1

[39] = target: Gal(b1-4)GlcNAc(b1-6)[Gal(b1-3)]GalNAc
Procedure, shortened: as §1

[40] = target: Gal3S(b1-3)GalNAc
Procedure, shortened: as §1

[41] = target: Gal3S(b1-3)GlcNAc
Procedure, shortened: as §1

[42] = target: Gal3S(b1-3)[Fuc(a1-4)]GlcNAc
Procedure, shortened: as §1

[43] = target: Gal3S(b1-4)Glc
Procedure, shortened: as §1

[44] = target: Gal3S(b1-4)Glc6S
Procedure, shortened: as §1

[45] = target: Gal3S(b1-4)GlcNAc
Procedure, shortened: as §1

[46] = target: Gal3S(b1-4)GlcNAc6S
Procedure, shortened: as §1

[47] = target: Gal3S(b1-4)[Fuc(a1-3)]Glc
Procedure, shortened: as §1

[48] = target: Gal3S4S(b1-4)GlcNAc
Procedure, shortened: as §1

[49] = target: Gal3S6S(b1-4)GlcNAc
Procedure, shortened: as §1

[50] = target: Gal3S6S(b1-4)GlcNAc6S
Procedure, shortened: as §1

[51] = target: Gal4S(b1-4)GlcNAc
Procedure, shortened: as §1

[52] = target: Gal4S6S(b1-4)GlcNAc
Procedure, shortened: as §1

[53] = target: Gal6S(b1-4)Glc
Procedure, shortened: as §1

[54] = target: Gal6S(b1-4)Glc6S
Procedure, shortened: as §1

[55] = target: Gal6S(b1-4)GlcNAc
Procedure, shortened: as §1

[56] = target: Gal6S(b1-4)GlcNAc6S
Procedure, shortened: as §1

[57] = target: GalNAc(a1-3)Gal
Procedure, shortened: as §1

[58] = target: GalNAc(a1-3)GalNAc
Procedure, shortened: as §1

[59] = target: GalNAc(b1-3)Gal
Procedure, shortened: as §1

[60] = target: GalNAc(b1-3)Gal(a1-4)Gal(b1-4)GlcNAc
Procedure, shortened: as §1

B1: Gal 8 (Homo sapiens), O00214 (protein)
chain: MMLSLNNLQNIIYNPVIPFVGTIPDQLDPGTLIVIRGHVPSDADRFQVDLQNGSSMKPRADVAFHFNPRFKRAGCIVCNTLINEKWGREEITYDTPFKREKSFEIVIMVKDKFQVAVNGKHTLLYGHRIGPEKIDTLGIYGKVNIHSIGFSFSSDLQSTQASSLELTEISRENVPKSGTPQLPSNRGGDISKIAPRTVYTKSKDSTVNHTLTCTKIPPMNYVSKRLPFAARLNTPMGPGRTVVVKGEVNANAKSFNVDLLAGKSKDIALHLNPRLNIKAFVRNSFLQESWGEEERNITSFPFSPGMYFEMIIYCDVREFKVAVNGVHSLEYKHRFKELSSIDTLEINGDIHLLEVRSW
glycan array binding signal (z-score) [1]: -0.401 | glycan array binding signal (z-score) [2]: 0.328 | glycan array binding signal (z-score) [3]: 1.22 | glycan array binding signal (z-score) [4]: -0.081 | glycan array binding signal (z-score) [5]: 0.445 | glycan array binding signal (z-score) [6]: 0.32 | glycan array binding signal (z-score) [7]: 0.277 | glycan array binding signal (z-score) [8]: 0.393 | glycan array binding signal (z-score) [9]: -0.302 | glycan array binding signal (z-score) [10]: 0.415 | glycan array binding signal (z-score) [11]: 1.1 | glycan array binding signal (z-score) [12]: 0.446 | glycan array binding signal (z-score) [13]: -0.413 | glycan array binding signal (z-score) [14]: -0.409 | glycan array binding signal (z-score) [15]: 0.294 | glycan array binding signal (z-score) [16]: -0.435 | glycan array binding signal (z-score) [17]: 0.021 | glycan array binding signal (z-score) [18]: -0.133 | glycan array binding signal (z-score) [19]: 0.353 | glycan array binding signal (z-score) [20]: -0.431 | glycan array binding signal (z-score) [21]: 1.28 | glycan array binding signal (z-score) [22]: -0.376 | glycan array binding signal (z-score) [23]: 0.104 | glycan array binding signal (z-score) [24]: 0.198 | glycan array binding signal (z-score) [25]: -0.032 | glycan array binding signal (z-score) [26]: 0.158 | glycan array binding signal (z-score) [27]: 0.219 | glycan array binding signal (z-score) [28]: 1.87 | glycan array binding signal (z-score) [29]: 2.43 | glycan array binding signal (z-score) [30]: 1.86 | glycan array binding signal (z-score) [31]: 2.07 | glycan array binding signal (z-score) [32]: 0.493 | glycan array binding signal (z-score) [33]: 0.139 | glycan array binding signal (z-score) [34]: 0.245 | glycan array binding signal (z-score) [35]: 0.199 | glycan array binding signal (z-score) [36]: 0.216 | glycan array binding signal (z-score) [37]: 0.186 | glycan array binding signal (z-score) [38]: -0.143 | glycan array binding signal (z-score) [39]: 0.333 | glycan array binding signal (z-score) [40]: 0.823 | glycan array binding signal (z-score) [41]: 0.41 | glycan array binding signal (z-score) [42]: -0.42 | glycan array binding signal (z-score) [43]: 0.286 | glycan array binding signal (z-score) [44]: 1.18 | glycan array binding signal (z-score) [45]: 0.094 | glycan array binding signal (z-score) [46]: 0.678 | glycan array binding signal (z-score) [47]: -0.432 | glycan array binding signal (z-score) [48]: -0.396 | glycan array binding signal (z-score) [49]: -0.451 | glycan array binding signal (z-score) [50]: -0.346 | glycan array binding signal (z-score) [51]: -0.395 | glycan array binding signal (z-score) [52]: -0.431 | glycan array binding signal (z-score) [53]: -0.368 | glycan array binding signal (z-score) [54]: -0.419 | glycan array binding signal (z-score) [55]: -0.392 | glycan array binding signal (z-score) [56]: -0.439 | glycan array binding signal (z-score) [57]: -0.427 | glycan array binding signal (z-score) [58]: -0.42 | glycan array binding signal (z-score) [59]: 0.446 | glycan array binding signal (z-score) [60]: 0.145
